Among all 270,000 compounds or so, about 5,800 (2.1%) were called active. Inconclusive means that the source gave no clear call. Such entries were picked first, then a sample of the others. Calls follow the shape of the dose curve; as a rule, active = well fitted inhibition curve with a large enough effect; inconclusive = small, poorly fitted or top-dose-only effect; inactive = flat fitted curve, though single readings scatter. Potencies beside an inconclusive call are fits to weak or partial responses and may not hold up.
What follows are molecules tested against Microtubule-associated protein tau (Homo sapiens) (UniProt P10636) (assay: qHTS for Inhibitors of Tau Fibril Formation, Thioflavin T Binding). Conditions: recombinant tau K18 P301L, heparin-induced fibrillization, ThT fluorescence; series mostly up to 57.4 µM; activity, negative = inhibition: at the top concentration.
UniProt P10636, sequence (P10636 whole entry, looked up): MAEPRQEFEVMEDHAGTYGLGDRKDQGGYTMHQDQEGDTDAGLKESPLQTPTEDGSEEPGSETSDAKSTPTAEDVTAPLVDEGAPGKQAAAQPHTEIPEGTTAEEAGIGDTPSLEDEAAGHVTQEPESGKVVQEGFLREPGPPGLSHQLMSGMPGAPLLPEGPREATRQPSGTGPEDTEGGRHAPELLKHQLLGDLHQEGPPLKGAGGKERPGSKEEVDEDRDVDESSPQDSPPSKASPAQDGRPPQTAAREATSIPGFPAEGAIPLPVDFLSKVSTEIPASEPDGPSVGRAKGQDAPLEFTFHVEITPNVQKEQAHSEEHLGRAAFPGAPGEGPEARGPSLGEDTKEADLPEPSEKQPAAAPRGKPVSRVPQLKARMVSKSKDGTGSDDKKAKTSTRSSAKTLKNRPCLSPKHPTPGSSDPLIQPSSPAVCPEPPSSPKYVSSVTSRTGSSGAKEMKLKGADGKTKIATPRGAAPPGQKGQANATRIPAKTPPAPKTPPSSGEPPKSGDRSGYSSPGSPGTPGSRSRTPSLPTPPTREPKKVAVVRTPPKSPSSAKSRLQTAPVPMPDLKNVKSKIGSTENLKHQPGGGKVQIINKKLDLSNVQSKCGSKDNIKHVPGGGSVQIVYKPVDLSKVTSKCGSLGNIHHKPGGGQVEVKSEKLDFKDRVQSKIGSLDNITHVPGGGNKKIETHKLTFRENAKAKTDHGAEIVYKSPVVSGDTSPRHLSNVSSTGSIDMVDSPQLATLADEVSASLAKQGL
In short: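 Fibril formation assay: tau K18 P301L at 15 uM with trace Alexa 594 label, heparin inducer 20 uM, pH 7 sodium acetate buffer, 37 C for 6 hr; endpoint ThT signal.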
% is scaled to controls: 0 for no effect and ±100 for the full control effect; potency is read from the fitted curve at half-maximal effect; tags tell the direction and shape of the fitted curve.
Also: nearly all actives have a fitted effect of over 55% in size.

Compound | activity, negative = inhibition | Potency
O=S(=O)(c1ccc2c(c1)oc1ccccc12)N1CCOCC1 | inactive: 1.32% | 
COc1cccc(C(=O)Nc2sc(C(C)C)cc2C(N)=O)c1OC |  | inconclusive: 0.708 µM [inhibitor, partial curve]
O=C(c1cc(-c2ccc(O)cc2)on1)N1CCN(c2ccccc2)CC1 |  | inconclusive: 11.2 µM [inhibitor, partial curve]
Cn1c(NC(=O)c2ccccc2NC(=O)C(C)(C)C)nc2ccccc21 |  | inconclusive: 25.1 µM [inhibitor, partial curve]
C/C(=N\Oc1cccc(F)n1)c1ccc(Cl)cc1Cl |  | inconclusive: 31.6 µM [inhibitor, partial curve, poor fit]
CCCCn1c(SCC(=O)Nc2ccc(OC)cc2)nc2ccc(N3CCOCC3)cc2c1=O |  | inconclusive: 25.1 µM [inhibitor, partial curve]
COc1ccccc1N1CCN(C(=O)CN2C(=O)c3cccc4cccc(c34)C2=O)CC1 |  | inconclusive: 39.8 µM [inhibitor, single point]
COc1cccc(Nc2nc3ccc(C)cc3nc2-n2nc(C)cc2C)c1 | inactive: -17.3% | 
O=c1c2ccccc2nc2c3ccccc3c(NCc3ccccn3)nn12 | inactive: -13.7% | 
COc1ccc(Cl)cc1NC(=O)CSC1=Nc2ccccc2C2=NC(CC(=O)NCc3cccs3)C(=O)N12 (centres undefined) |  | inconclusive: 7.94 µM [inhibitor, partial curve]
COc1ccc(CCNC(=O)CSc2n[nH]c(-c3ccccc3Cl)n2)cc1OC | inactive: -1.6% | 
N#CC1=C2Sc3ccccc3N2CCCC1=O | inactive: 10.4% | 
CC(=O)Nc1ccc(C(=O)/C=C/c2ccc[nH]2)cc1 |  | inconclusive: 39.8 µM [inhibitor, single point]
Cc1nc(N2CCN(c3ccccc3)CC2)c2c3c(sc2n1)CCC3 |  | inconclusive: 25.1 µM [inhibitor, partial curve]
Nc1cc2c(cc1[N+](=O)[O-])OCCO2 |  | inconclusive: 22.4 µM [inhibitor, single point]
Cc1cccc(C2(c3cccc(C)c3)CC2C(=O)Nc2ccc([N+](=O)[O-])cc2O)c1 (centres undefined) |  | inconclusive: 28.2 µM [inhibitor, partial curve]
COc1cc(C2NC(=S)NC3=C2CCc2ccccc23)cc(OC)c1OC (centres undefined) | inactive: 1.34% | 
COc1ccccc1NC(=O)CC(NC1CCCCC1)C(=O)O (centres undefined) | inactive: -4.29% | 
S=c1[nH]nc(-c2ccccn2)n1/N=C/c1ccc(Cl)c(Cl)c1 |  | inconclusive: 35.5 µM [inhibitor, single point]
Cc1ccc(C(=O)NCc2ccc(F)cc2)cc1NC(=O)c1nsc2ccccc12 |  | inconclusive: 11.2 µM [inhibitor, partial curve]
CCN1C=CC(=C2C(=O)c3ccccc3C2=O)C=C1 |  | inconclusive: 20 µM [inhibitor, single point]
COCCn1c(-c2ccccc2)cnc1SCC(=O)Nc1cccc2ccccc12 | inactive: 5.44% | 

Compound | activity, negative = inhibition | Potency
O=C(NC(=S)Nc1ccc2oc(-c3cccnc3)nc2c1)c1cccc(Cl)c1 |  | inconclusive: 0.891 µM [inhibitor, full curve]
CO/N=C(\C(=O)N[C@@H]1C(=O)N2C(C(=O)O)=C(COC(N)=O)CS[C@H]12)c1ccco1 |  | inconclusive: 14.1 µM [inhibitor, partial curve, poor fit]
COc1cccc(N2CCN(C(=O)c3ccc(NC(=O)c4nsc5ccccc45)cc3)CC2)c1 |  | inconclusive: 8.91 µM [inhibitor, partial curve]
O=C(CN1C(=O)NC2(CCOc3ccccc32)C1=O)Nc1ccc(F)c(F)c1F (centres undefined) |  | inconclusive: 14.1 µM [inhibitor, partial curve, poor fit]
Cc1ccc(-c2ccc(/C=N/NC(=S)Nc3ccccc3)o2)cc1[N+](=O)[O-] |  | inconclusive: 7.08 µM [inhibitor, partial curve]
O=C(CCCn1c(=S)[nH]c2ccc(Br)cc2c1=O)N1CCN(c2ccccn2)CC1 |  | inconclusive: 3.16 µM [inhibitor, partial curve]
Fc1ccccc1Cc1noc(CN2CCC(OCc3cccnc3)CC2)n1 | inactive: -15.4% | 
CCOc1ccccc1C(=O)NC1CC2CCCC(C1)N2Cc1nnnn1Cc1ccco1 (centres undefined) |  | inconclusive: 15.8 µM [inhibitor, single point]
O=C1OC(/C(=C\Nc2ccc(F)cc2F)[N+](=O)[O-])c2ccccc21 (centres undefined) |  | inconclusive: 31.6 µM [inhibitor, single point]
Cc1ccc(C2SCCN2C(=O)c2ccc([N+](=O)[O-])cc2)cc1 (centres undefined) | inactive: -14.5% | 
COc1ccc(-c2csc(N3CCN(c4cc(C)nc5ccccc45)CC3)n2)cc1OC |  | inconclusive: 6.31 µM [inhibitor, partial curve]
NC(=S)N/N=C/c1coc2ccc(O)cc2c1=O |  | inconclusive: 39.8 µM [inhibitor, single point]
COc1cc(C(=O)Nc2nonc2-c2ccc(C)c(C)c2)cc(OC)c1OC | inactive: -2.94% | 
Clc1cccc(-c2nn3c(Cn4cnc5ccccc54)nnc3s2)c1 | inactive: -4.38% | 
Cc1ccc2nc3sc(-c4nnc(-c5ccccc5[N+](=O)[O-])o4)c(N)c3cc2c1 |  | inconclusive: 0.891 µM [inhibitor, full curve]
Cc1ccccc1CSCC(=O)NCc1ccco1 | inactive: 8.54% | 
Fc1ccccc1/C=C1\CCCC2=C1NC(=S)NC2c1ccccc1F (centres undefined) | inactive: -18% | 
N#C/C(=C/c1ccc(N2CCOCC2)o1)c1ccc(Cl)cc1 |  | active: 15.8 µM
CC1=C(c2ccc(C)c(C)c2)S(=O)(=O)N=C1N1CCC(C(=O)NC(C)Cc2ccco2)CC1 (centres undefined) |  | inconclusive: 31.6 µM [inhibitor, single point]
CCOCCCNC(=O)C1CCC(CNS(=O)(=O)c2ccc(Cl)cc2)CC1 (centres undefined) | inactive: -16.5% | 
COc1ccc(-n2cccc2/C=C2\C(=N)N3N=C(c4ccco4)SC3=NC2=O)cc1 |  | inconclusive: 7.94 µM [inhibitor, partial curve]
COc1ccc(-c2ccc(N(C)C)cc2)cc1[C@H]1[C@H]2C=CC[C@@H](C)[C@@H]2C(=O)N1Cc1ccccc1 |  | inconclusive: 10 µM [inhibitor, partial curve]
